The values that follow come from publication PMC5892938.

This is one part of the list. At the low end of the ranking the order means little.

The experiment has as its target GST-SBP-SLBP (stem-loop binding protein) (UniProt Q14493). Nature of the experiment: targeted RNA Bind-n-Seq.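 Further: DESeq read counts versus GST-SBP nonspecific binding control pulldown.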 Particulars: RBNS binding buffer: 25 mM Tris pH 7.5, 150 mM KCl, 3 mM MgCl2, 0.1% Tween, 0.5 mg/mL BSA, 1 mM DTT; 27 nM protein, 750 pM RNA pool; temperature not stated; high values mean tight binding.
As for “GGUCACGUCUCAAUCAACUCCAAAGAGGGGGGGAAAACCCCUUUGCCCUCCACAUCAACAGCUCGCAGUCAAG”, the binding signal (log2 fold change) was -0.371. The same measure for “GGUCACGUCUCAAUCAACUCACAAGAGGGGGGGAAAACCCCUUUGCCCUCAUACUCAACAGCUCGCAGUCAAG”: -0.362; for “GGUCACGUCUCAAUCAACUCAAAAGAGGGGGGGAAAACCCCUUUACCCUCACUCUCAACAGCUCGCAGUCAAG”: -0.102; for “GGUCACGUCUCAAUCAACUCAAUUUCAGGAGUUUACUCCUGCAUUUUCAACAGCUCGCAGUCAAG”: -0.0461.

“GGUCACGUCUCAAUCAACUCUUCGUCAGGAGUUUACUCCUGCUUUUUCAACAGCUCGCAGUCAAG”: the binding signal (log2 fold change) was determined as 0.195.

Turning to “GGUCACGUCUCAAUCAACUCAUCCCCCAGGGAAACCCCUGGCUAUCUCAACAGCUCGCAGUCAAG”, the binding signal (log2 fold change) amounted to 0.143. The same measure for “GGUCACGUCUCAAUCAACUCUUUCCCCAGGGAAAUCCCUGGCUAUUUCAACAGCUCGCAGUCAAG”: -0.129; for “GGUCACGUCUCAAUCAACUCUUUUUCAGGAGUUUCCUCCUGUUAAUUCAACAGCUCGCAGUCAAG”: 0.127. For “GGUCACGUCUCAAUCAACUCUUUUCCCAGGGAAACCCCUGGUUUUCUCAACAGCUCGCAGUCAAG” the value was 0.0265; for “GGUCACGUCUCAAUCAACUCUAAAGAGGGGGGGAAAACCCCUUUACCCUCAAUUUCAACAGCUCGCAGUCAAG”, 0.102.

Consider “GGUCACGUCUCAAUCAACUCAAUUCCAGGAGUUUUCUCCUGCUUACUCAACAGCUCGCAGUCAAG”, for which the binding signal (log2 fold change) was 0.13. The same measure for “GGUCACGUCUCAAUCAACUCAUCCUCAGGAGUUUACUCCUGCAUUCUCAACAGCUCGCAGUCAAG”: 0.0577; for “GGUCACGUCUCAAUCAACUCAUCCCCAGGAGUUUUCUCCUGCAUAGUCAACAGCUCGCAGUCAAG”: 0.142; for “GGUCACGUCUCAAUCAACUCUAACGAGGGGGGGAAAACCCCUUUACCCUCAUUCUCAACAGCUCGCAGUCAAG”: -0.527. The same measure for “GGUCACGUCUCAAUCAACUCUUUCCCAGGAGUUUCCUCCUGUAAUUUCAACAGCUCGCAGUCAAG”: 0.0116; for “GGUCACGUCUCAAUCAACUCAUUCUCAGGAGUUUUCUCCUGCUUUUUCAACAGCUCGCAGUCAAG”: 0.108. In the case of “GGUCACGUCUCAAUCAACUCUCUAGAGGGGGGGAAAACCCCUUUGCCCUCAAAUUCAACAGCUCGCAGUCAAG”, the binding signal (log2 fold change) is -0.527. The same measure for “GGUCACGUCUCAAUCAACUCCAUCGAGGGGGGGAAAACCCCUUUGCCCUCACAUUCAACAGCUCGCAGUCAAG”: 0.0932; for “GGUCACGUCUCAAUCAACUCUUCCUCCAGGGAAAGCCCUGGUUAUUUCAACAGCUCGCAGUCAAG”: -0.326. “GGUCACGUCUCAAUCAACUCUUCCUCCAGGGAAACCCCUGGCUAUUUCAACAGCUCGCAGUCAAG”: the binding signal (log2 fold change) was -0.104. For “GGUCACGUCUCAAUCAACUCAAUUUCCAGGGAAAACCCUGGUAUUCUCAACAGCUCGCAGUCAAG” the value was -0.00494; for “GGUCACGUCUCAAUCAACUCUAUUUCAGGAGUUUUCUCCUGUAUAUUCAACAGCUCGCAGUCAAG”, -0.171; for “GGUCACGUCUCAAUCAACUCUUUUCCCAGGGAAAGCCCUGGUUUUUUCAACAGCUCGCAGUCAAG”, -0.135.

For “GGUCACGUCUCAAUCAACUCAUUCCCCAGGGAAAGCCCUGGUAUUCUCAACAGCUCGCAGUCAAG”, the binding signal (log2 fold change) is -0.0736. Regarding “GGUCACGUCUCAAUCAACUCUUUUUCCAGGGAAAACCCUGGCAGUCUCAACAGCUCGCAGUCAAG”, the binding signal (log2 fold change) is 0.12. For “GGUCACGUCUCAAUCAACUCAACAGAGGGGGGGAAAACCCCUUUACCCUCAUUUUCAACAGCUCGCAGUCAAG” the value was 0.422. For the sequence “GGUCACGUCUCAAUCAACUCAAGUCCCAGGGAAACCCCUGGUUAAUUCAACAGCUCGCAGUCAAG”, the binding signal (log2 fold change) is -0.399.

On to “GGUCACGUCUCAAUCAACUCUUCUUCCAGGGAAAUCCCUGGCUAAUUCAACAGCUCGCAGUCAAG”, for which the binding signal (log2 fold change) stood at 0.0581. As for “GGUCACGUCUCAAUCAACUCUUCUCCAGGAGUUUUCUCCUGCUAUGUCAACAGCUCGCAGUCAAG”, the binding signal (log2 fold change) is -0.0246. Regarding “GGUCACGUCUCAAUCAACUCUUACGAGGGGGGGAAAACCCCUUUACCCUCAUCAUCAACAGCUCGCAGUCAAG”, the binding signal (log2 fold change) was -0.045. With “GGUCACGUCUCAAUCAACUCAUCGUCAGGAGUUUUCUCCUGCUAUUUCAACAGCUCGCAGUCAAG”, the binding signal (log2 fold change) worked out at 0.0471. For “GGUCACGUCUCAAUCAACUCUUCUCCAGGAGUUUUCUCCUGCUAUCUCAACAGCUCGCAGUCAAG” the value was 0.0817; for “GGUCACGUCUCAAUCAACUCAAUUUCAGGAGUUUCCUCCUGCAUAGUCAACAGCUCGCAGUCAAG”, 0.159. For “GGUCACGUCUCAAUCAACUCAUCCUCCAGGGAAAACCCUGGUUAAUUCAACAGCUCGCAGUCAAG” the value was 0.00953. The same measure for “GGUCACGUCUCAAUCAACUCUUCUCCCAGGGAAAGCCCUGGUUUACUCAACAGCUCGCAGUCAAG”: -0.187; for “GGUCACGUCUCAAUCAACUCAAUCGCAGGAGUUUUCUCCUGGUUUCUCAACAGCUCGCAGUCAAG”: -0.0134; for “GGUCACGUCUCAAUCAACUCAUUCCCAGGAGUUUACUCCUGUAUUCUCAACAGCUCGCAGUCAAG”: 0.0766. “GGUCACGUCUCAAUCAACUCUUCUCCCAGGGAAAGCCCUGGUAAUCUCAACAGCUCGCAGUCAAG”: the binding signal (log2 fold change) was -0.113. As to “GGUCACGUCUCAAUCAACUCAUUCCCAGGAGUUUACUCCUGCAAUUUCAACAGCUCGCAGUCAAG”, the binding signal (log2 fold change) worked out at 0.0311. For “GGUCACGUCUCAAUCAACUCUUUCGAGGGGGGGAAAACCCCUUUACCCUCAACUUCAACAGCUCGCAGUCAAG” the value was 0.152. For “GGUCACGUCUCAAUCAACUCUAUCUCCAGGGAAAGCCCUGGUAUUCUCAACAGCUCGCAGUCAAG” the value was 0.287; for “GGUCACGUCUCAAUCAACUCAACGCCAGGAGUUUACUCCUGUAAUUUCAACAGCUCGCAGUCAAG”, -0.0163; for “GGUCACGUCUCAAUCAACUCUCUCGAGGGGGGGAAAACCCCUUUACCCUCACUAUCAACAGCUCGCAGUCAAG”, -0.000312. The same measure for “GGUCACGUCUCAAUCAACUCAAUCUCAGGAGUUUUCUCCUGCUUUUUCAACAGCUCGCAGUCAAG”: 0.0182; for “GGUCACGUCUCAAUCAACUCUACUUCCAGGGAAAUCCCUGGUAUUUUCAACAGCUCGCAGUCAAG”: -0.162. “GGUCACGUCUCAAUCAACUCUUCUCCAGGAGUUUACUCCUGUUUUUUCAACAGCUCGCAGUCAAG”: the binding signal (log2 fold change) is -0.133. For “GGUCACGUCUCAAUCAACUCUUCCCCCAGGGAAACCCCUGGCAAUGUCAACAGCUCGCAGUCAAG” the value was 0.0304; for “GGUCACGUCUCAAUCAACUCUAUCUCAGGAGUUUACUCCUGCUUAUUCAACAGCUCGCAGUCAAG”, 0.12; for “GGUCACGUCUCAAUCAACUCUUCUCCCAGGGAAAUCCCUGGCAAUUUCAACAGCUCGCAGUCAAG”, 0.0159. For “GGUCACGUCUCAAUCAACUCACACGAGGGGGGGAAAACCCCUUUACCCUCUACAUCAACAGCUCGCAGUCAAG” the value was -0.158. Turning to “GGUCACGUCUCAAUCAACUCUAUUUCCAGGGAAACCCCUGGUUAACUCAACAGCUCGCAGUCAAG”, the binding signal (log2 fold change) is -0.356. Turning to “GGUCACGUCUCAAUCAACUCUCAAGAGGGGGGGAAAACCCCUUUGCCCUCAUCUUCAACAGCUCGCAGUCAAG”, the binding signal (log2 fold change) was -0.534. For “GGUCACGUCUCAAUCAACUCUACUUCCAGGGAAACCCCUGGCUAUCUCAACAGCUCGCAGUCAAG”, the binding signal (log2 fold change) turned out to be 0.167. For “GGUCACGUCUCAAUCAACUCGUCUUCAGGAGUUUUCUCCUGCAUUUUCAACAGCUCGCAGUCAAG” the value was -0.0137; for “GGUCACGUCUCAAUCAACUCUUUUUCAGGAGUUUCCUCCUGUUAUCUCAACAGCUCGCAGUCAAG”, 0.166; for “GGUCACGUCUCAAUCAACUCAAUUCCCAGGGAAACCCCUGGUUAAUUCAACAGCUCGCAGUCAAG”, 0.147. For “GGUCACGUCUCAAUCAACUCAACUCCAGGAGUUUUCUCCUGUAAACUCAACAGCUCGCAGUCAAG”, the binding signal (log2 fold change) was 0.195. In the case of “GGUCACGUCUCAAUCAACUCCCCAGAGGGGGGGAAAACCCCUUUACCCUCGUUAUCAACAGCUCGCAGUCAAG”, the binding signal (log2 fold change) is 0.0301.

On to “GGUCACGUCUCAAUCAACUCAUUUUCCAGGGAAAGCCCUGGCUUACUCAACAGCUCGCAGUCAAG”, for which the binding signal (log2 fold change) is -0.0632. As for “GGUCACGUCUCAAUCAACUCAAUCCCCAGGGAAAACCCUGGUUAACUCAACAGCUCGCAGUCAAG”, the binding signal (log2 fold change) was -0.0665. Turning to “GGUCACGUCUCAAUCAACUCUUUAGAGGGGGGGAAAACCCCUUUACCCUCCGCAUCAACAGCUCGCAGUCAAG”, the binding signal (log2 fold change) was determined as 0.103. In the case of “GGUCACGUCUCAAUCAACUCAUCCUCAGGAGUUUUCUCCUGUAAAGUCAACAGCUCGCAGUCAAG”, the binding signal (log2 fold change) came out at 0.126. The same measure for “GGUCACGUCUCAAUCAACUCAUAAGAGGGGGGGAAAACCCCUUUGCCCUCAUUUUCAACAGCUCGCAGUCAAG”: -0.0794; for “GGUCACGUCUCAAUCAACUCUUCCCCCAGGGAAACCCCUGGCAAACUCAACAGCUCGCAGUCAAG”: -0.023. The same measure for “GGUCACGUCUCAAUCAACUCAAUCCCAGGAGUUUACUCCUGCUAUUUCAACAGCUCGCAGUCAAG”: -0.152. Regarding “GGUCACGUCUCAAUCAACUCUUUCUCAGGAGUUUUCUCCUGUAAUCUCAACAGCUCGCAGUCAAG”, the binding signal (log2 fold change) was -0.0425. The same measure for “GGUCACGUCUCAAUCAACUCAUCUUCAGGAGUUUACUCCUGUUUACUCAACAGCUCGCAGUCAAG”: 0.0798; for “GGUCACGUCUCAAUCAACUCCCCAGAGGGGGGGAAAACCCCUUUGCCCUCACUUUCAACAGCUCGCAGUCAAG”: 0.0765; for “GGUCACGUCUCAAUCAACUCAUCUUCCAGGGAAACCCCUGGCGUUUUCAACAGCUCGCAGUCAAG”: 0.0622.

In the case of “GGUCACGUCUCAAUCAACUCAUCGUCAGGAGUUUCCUCCUGCUAUCUCAACAGCUCGCAGUCAAG”, the binding signal (log2 fold change) was -0.139. With “GGUCACGUCUCAAUCAACUCAACUUCCAGGGAAAUCCCUGGUAUUCUCAACAGCUCGCAGUCAAG”, the binding signal (log2 fold change) is -0.143.

For “GGUCACGUCUCAAUCAACUCUUCUCCAGGAGUUUUCUCCUGUAAUCUCAACAGCUCGCAGUCAAG”, the binding signal (log2 fold change) amounted to 0.159.

For “GGUCACGUCUCAAUCAACUCCCACGAGGGGGGGAAAACCCCUUUACCCUCUUUCUCAACAGCUCGCAGUCAAG”, the binding signal (log2 fold change) is -0.0395.

Regarding “GGUCACGUCUCAAUCAACUCAUUUUCCAGGGAAACCCCUGGUAAUCUCAACAGCUCGCAGUCAAG”, the binding signal (log2 fold change) was -0.148.
